Data from PubChem BioAssay AID488969 (Vanderbilt High Throughput Screening Facility, 2010).
Whole data set: some 110,000 compounds, median “z-score” near -0.1, cut for the highest 2% near 2. This is one part of the list. Active and inactive are the calls of the source.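 Rule for the calls: active = z-score in the third read window above 3 or below -3; inactive = the rest.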

molecular target: Metabotropic glutamate receptor 8 (Rattus norvegicus) (UniProt P70579); test: mGluR8 Gi/Go-coupled signaling modulation – cell-based, rat, thallium flux, HTS, primary screen (AID 488969); conditions: HEK293 rat mGluR8, GIRK (G protein-gated inwardly rectifying potassium channel) thallium flux, FluoZin2; at 10 µM; stronger effect = higher value; submaximal glutamate (EC20) added with thallium
Sequence of UniProt P70579 (P70579 whole entry, looked up): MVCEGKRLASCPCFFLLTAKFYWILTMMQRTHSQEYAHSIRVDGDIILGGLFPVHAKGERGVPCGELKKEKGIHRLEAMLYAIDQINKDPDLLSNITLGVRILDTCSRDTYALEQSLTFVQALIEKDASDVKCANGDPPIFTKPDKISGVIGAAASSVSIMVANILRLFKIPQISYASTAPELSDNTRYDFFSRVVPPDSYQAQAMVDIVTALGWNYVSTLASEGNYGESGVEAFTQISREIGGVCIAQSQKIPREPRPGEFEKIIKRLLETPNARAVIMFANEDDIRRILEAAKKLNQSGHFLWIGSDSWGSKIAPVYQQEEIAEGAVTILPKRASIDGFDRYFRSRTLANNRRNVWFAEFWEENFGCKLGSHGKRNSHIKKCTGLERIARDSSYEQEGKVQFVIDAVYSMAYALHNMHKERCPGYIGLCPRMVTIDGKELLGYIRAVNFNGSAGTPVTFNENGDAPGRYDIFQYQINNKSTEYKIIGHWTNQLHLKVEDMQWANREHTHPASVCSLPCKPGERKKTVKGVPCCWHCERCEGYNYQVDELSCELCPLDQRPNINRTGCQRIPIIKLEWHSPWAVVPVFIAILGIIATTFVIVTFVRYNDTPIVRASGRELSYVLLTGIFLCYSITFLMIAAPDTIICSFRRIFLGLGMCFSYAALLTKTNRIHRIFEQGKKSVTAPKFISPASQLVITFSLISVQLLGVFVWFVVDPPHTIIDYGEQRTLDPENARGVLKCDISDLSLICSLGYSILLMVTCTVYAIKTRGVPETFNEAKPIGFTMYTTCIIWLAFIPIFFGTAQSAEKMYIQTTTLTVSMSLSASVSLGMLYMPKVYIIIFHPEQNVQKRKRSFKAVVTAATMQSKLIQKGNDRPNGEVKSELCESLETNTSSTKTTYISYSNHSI

SMILES | z-score
C#CCOc1c(Br)cc(/C=N\NC(=O)CN2CCOCC2)cc1OCC | -0.919
CSc1ccc(/C=c2\s/c(=C\C(=O)C(C)(C)C)n(CC(=O)NCCC3=CCCCC3)c2=O)cc1 | -0.0802
COc1ccc2c(c1)c1nc3ccccc3nc1n2CCCN1C(=O)c2ccccc2C1=O | -0.0232
Cn1nccc1C(=O)c1ccc(Cl)cc1 | 0.173
COc1cc(NC(=O)c2cc(C(C)C)on2)c(OC)cc1Cl | 0.0343
CCOc1ccc(OCc2ccc(C(=O)NCc3ccncc3)o2)cc1 | -0.0211
COc1cc(NC(=O)C2CCCO2)c(OC)cc1NC(=O)c1ccccc1 (centres undefined) | -0.236
Cc1ncc2c(c1OC(=O)c1ccccc1)COC(C)(C)OC2 | 0.712
Cc1nn(CC(=O)NCc2ccccc2)c(C)c1[N+](=O)[O-] | -0.00269
CCN1C(=O)/C(=C/c2nc3ccccc3c(=O)n2-c2ccc(C)cc2)c2ccccc21 | -0.146
O=C(CN1CCN(c2ccccc2O)CC1)NC(c1ccccc1)c1ccccc1 | 0.00777
Cc1ccccc1-n1c(-c2cccnc2)n[nH]c1=S | -0.275
CCCC(C)C(=O)NCc1ccc2c(c1)OCO2 (centres undefined) | -0.306
CC/C(Cc1ccccc1)=N\NC(=O)c1cc(C)oc1C | -0.582
O=C(NNC(=O)c1ccccc1-n1cccc1)c1ccc(Cl)cc1 | -0.0349
COc1cc(C)nc(OCCNC(=O)COc2ccc(Cl)cc2C)n1 | 0.0609
COc1cc(C(=O)Nc2ccc(S(=O)(=O)NC(C)C)cc2)cc(OC)c1OC | -0.131
Cc1cccc(C(=O)NC(=S)NNC(=O)c2ccccc2Cl)c1 | active: 5.34
NC(=O)c1c(NC(NC(=O)c2ccco2)C(=O)c2ccc(Cl)cc2)sc2c1CCCC2 (centres undefined) | -0.44
CC(Sc1nnc(C2CCCCC2)n1N)C(=O)NCc1ccc2c(c1)OCO2 (centres undefined) | 0.393
CCN1CCN(C(=O)/C=C/c2ccc(C)o2)CC1 | -0.161
O=C(C#Cc1ccccc1)c1ccc([N+](=O)[O-])cc1 | -0.372
CCC(=O)N1c2ccccc2[C@@H](N(C(C)=O)c2ccccc2)C[C@H]1C | -0.27
COc1cc(C)nc(N2CCCC(C(=O)Nc3cccc(Cl)c3Cl)C2)n1 (centres undefined) | -0.0262
O/N=C/c1cc(Br)ccc1OCc1ccccc1F | -0.171
Cc1ccc(-c2c(C)n([O-])c3c([n+]2=O)CCC3)cc1 | -0.263
Cn1ncc(Cl)c1C(=O)N1CCCc2ccccc21 | 0.0572

SMILES | z-score
COC(=O)c1cccc(NC(=O)/C=C/c2cccc([N+](=O)[O-])c2)c1 | -0.164
CN1CCc2nc3sc(C(=O)C45CC6CC(CC(C6)C4)C5)c(N)c3cc2C1 | -0.176
O=[N+]([O-])c1cc2c(cc1/C=N/Nc1nc(N3CCCC3)nc(N3CCCC3)n1)OCO2 | -0.208
CC(=O)N1N=C(c2ccc(C)o2)CC1c1ccc(Br)cc1 (centres undefined) | -0.469
Cc1ccc(C(=O)Nc2ccccc2C(=O)N2CCOCC2)cc1[N+](=O)[O-] | -0.149
CCN(CC)C(=O)c1cc2cc(Br)ccc2oc1=O | 0.312
CCC(=O)Nc1ccc2c(c1)C(=O)N(C1CCCCC1)C2=O | -0.167
Cc1ccccc1C(=O)NNC(=O)Cc1ccccc1 | -0.146
CN(C)c1nn(C(=O)Nc2ccc(Cl)cc2Cl)cc1-c1ccccc1 | 0.096
O=C(Nc1ccc2cn[nH]c2c1)c1ccc(Cl)c(S(=O)(=O)N2CCOCC2)c1 | -0.292
CCNS(=O)(=O)c1ccc(NC(=O)Nc2cccc(C(F)(F)F)c2)cc1 | -0.286
Cc1ccc(SCC2(O)CCN(C(=O)c3ccc(Cl)cc3)CC2)cc1 | -0.328
Cc1oc(-c2ccccc2Cl)nc1CS(=O)CC(=O)NCc1cccs1 (centres undefined) | -1.02
O=C(Nc1ccccc1Cl)O/N=C(/c1ccccc1)c1ccccn1 | -0.521
Cc1cc2c(C)nc(-c3ccccc3)nc2o1 | 0.681
CCc1nc(-n2[nH]c(=O)c3ccccc3c2=O)c2c3c(sc2n1)CCCC3 | 0.0357
CCOc1cc(/C=N/NC(=O)Cn2nc([N+](=O)[O-])cc2C)ccc1OCc1ccc(F)cc1 | -0.177
COc1ccc(CC(=O)N2CCN(c3ccccn3)CC2)cc1OC | 0.442
COc1ccc(C(=O)Nc2ccc(Cl)cc2C(=O)NCCN2CCOCC2)cc1 | 0.417
COc1cc(Cl)ccc1NC(=O)COc1ccccc1C(=O)N1CCN(c2ccc(O)cc2)CC1 | 0.132
COc1ccccc1CO/N=C/NC(=O)c1c(OC)ccnc1Oc1ccc(F)cc1 | -0.607
N#C/C(=N\Nc1cccc2ccccc12)c1nnc2n1CCCCC2 | -0.102
Cc1nn(Cc2ccc(Cl)cc2)c(C)c1NC(=O)CSc1n[nH]c(C)c1[N+](=O)[O-] | -0.196
O=[N+]([O-])c1cccc(Cl)c1NCCNS(=O)(=O)c1ccc(Cl)cc1 | -0.175
O=C(CN1CCCCC1)N1c2ccccc2Oc2ccccc21 | -0.0708
CC(OC(=O)c1ccc2ccccc2n1)C(=O)Nc1ccc(N2CCOCC2)cc1 (centres undefined) | 0.981
COC(CNC(=O)Cn1ncc2ccsc2c1=O)OC | -0.112
